Measured values from PubChem BioAssay (NCI).
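Step 1: Grow cells in 96-well plates. Step 2: Expose to compound for 48 hours at 5 concentrations. Step 3: Interpolate endpoints linearly; if unreached, use highest concentration. GI50 = concentration required for 50% inhibition of growth. Definition used: TGI = concentration required for complete inhibition of growth.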

System: NCI-H322M lung
Experiment: inhibition of tumour cell growth, NCI panel, 48 h

Molecule C=C(C)[C@@H]1CC[C@]2(COCCCNCCCN)CC[C@]3(C)[C@H](CC[C@@H]4[C@@]5(C)CC[C@H](O)C(C)(C)[C@@H]5CC[C@]43C)[C@@H]12 has a GI50 of 1680 nM and a TGI of 3090 nM.
